Measured values taken from the supplement of paper PMC3334620.
In all, about 33,000 sequences were measured (“E-score (-0.5 to 0.5)”: median about -0.041, highest 2% from about 0.37 on). The list shows a part of the results.

biological target: T1, Ecm22 (UniProt Q05958); test: PBM E-score (8-mer binding enrichment) (E-score (-0.5 to 0.5)); higher = stronger / more preferred TF binding; most listed sequences are background and not binding sites; conditions: protein concentration: 200 nM; construct: GST-full length
T1 sequence: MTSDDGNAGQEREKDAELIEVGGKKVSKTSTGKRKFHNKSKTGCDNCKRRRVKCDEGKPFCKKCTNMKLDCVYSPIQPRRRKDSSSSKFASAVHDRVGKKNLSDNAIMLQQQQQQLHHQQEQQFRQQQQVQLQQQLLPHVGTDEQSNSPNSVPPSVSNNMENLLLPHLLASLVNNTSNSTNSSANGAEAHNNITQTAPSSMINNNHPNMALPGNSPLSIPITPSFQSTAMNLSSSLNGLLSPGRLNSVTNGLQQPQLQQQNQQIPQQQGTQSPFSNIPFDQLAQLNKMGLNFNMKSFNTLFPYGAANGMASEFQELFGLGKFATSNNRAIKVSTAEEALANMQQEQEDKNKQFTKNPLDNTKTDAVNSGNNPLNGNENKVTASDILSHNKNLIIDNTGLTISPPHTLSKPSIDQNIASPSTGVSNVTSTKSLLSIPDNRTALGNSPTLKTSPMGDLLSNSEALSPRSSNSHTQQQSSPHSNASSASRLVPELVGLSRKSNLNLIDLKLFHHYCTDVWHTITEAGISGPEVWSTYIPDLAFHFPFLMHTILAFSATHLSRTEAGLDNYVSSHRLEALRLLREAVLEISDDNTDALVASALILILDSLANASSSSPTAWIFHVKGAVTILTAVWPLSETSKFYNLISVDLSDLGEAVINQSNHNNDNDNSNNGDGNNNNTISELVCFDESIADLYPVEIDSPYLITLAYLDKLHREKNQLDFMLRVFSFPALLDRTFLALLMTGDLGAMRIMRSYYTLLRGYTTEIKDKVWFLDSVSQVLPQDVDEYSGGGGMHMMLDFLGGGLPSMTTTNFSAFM
Procedure, shortened: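 Yeast transcription factors, full-length or as DNA-binding domains, were expressed with a GST tag using PURExpress in vitro transcription/translation. At about 100-200 nM they were applied to universal all-10-mer Agilent arrays, double-stranded by primer extension on fresh or once-stripped slides. Fluorescent anti-GST detected bound protein, and masliner normalised the scans. E-scores for ungapped eight-base words, pooled with reverse complements, came from the Universal PBM Analysis Suite.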

| Sequence | PBM E-score |
| --- | --- |
| CACTAAAG | -0.021 |
| TAAAGGTA | -0.0447 |
| CTGGATTC | -0.0312 |
| ACTTCCTC | -0.0675 |
| CAGCCCTG | -0.258 |
| TCCCGTAA | 0.224 |
| CGACGCAG | 0.166 |
| AGAGAAAG | -0.136 |
| GCTGAAGA | -0.0949 |
| AACTGCAC | -0.114 |
| AACAGCTG | -0.174 |
| ATTGCTCA | -0.134 |
| CAATCCGG | 0.0027 |
| CAGCTACC | -0.229 |
| ATTTGCTC | -0.0361 |
| AGATTGTG | -0.147 |
| CACCTAAC | -0.164 |
| CTGGTTTA | 0.0282 |
| TCTCGACA | 0.00044 |
| AGTACACA | 0.18 |
| GCTTTCGA | -0.046 |
| CAACTGTA | -0.0431 |

| Sequence | PBM E-score |
| --- | --- |
| CCACTTCG | 0.0952 |
| ATTGTTTC | 0.0843 |
| CCCGAGGA | 0.0771 |
| ATGTCAGG | -0.336 |
| AGTCCGTA | 0.242 |
| GAAGAGCC | -0.035 |
| CCCCTATC | -0.0953 |
| ACTCGCAC | 0.22 |
| ACCGCACG | 0.0338 |
| ATATAGTG | 0.105 |
| GTTCACTA | 0.148 |
| CAATTGCG | -0.0414 |
| CCCGTCGG | 0.126 |
| AATGTTCC | -0.12 |
| AGGTCATC | -0.0582 |
| GCCCCAAC | -0.0123 |
| ACAGCCTA | -0.175 |
| ATCAACTG | -0.132 |
| AAGAGGTC | -0.207 |
| GCCGTTAA | 0.24 |
| ACATAGCG | -0.133 |
| CTTTGCAC | -0.035 |

| Sequence | PBM E-score |
| --- | --- |
| CAGGAGAC | 0.0295 |
| GCATCCTA | -0.0684 |
| ATAAGCCG | -0.178 |
| GCGTTCAA | 0.0639 |
| CTTAAATC | -0.0752 |
| TCAAGTAA | -0.225 |
| CTCGTTCA | 0.47 |
| ATCCCAGG | -0.303 |
| CCAGTTAC | -0.107 |
| TGGCAAAA | -0.171 |
| CCTAAAAA | -0.192 |
| ACCAGACT | -0.124 |
| ACAATTAT | 0.132 |
| ATTTGTGG | -0.0395 |
| ACGAAGTG | 0.288 |
| TAGGTATA | 0.181 |
| AAATATGC | 0.0499 |
| CCGTATTA | 0.316 |
| GAATGGAC | -0.13 |
| CCAACCGC | -0.12 |
| AAATCCCA | -0.153 |
| GGTGGCTA | -0.245 |

| Sequence | PBM E-score |
| --- | --- |
| TCCGCCCA | -0.195 |
| AAGATTAT | -0.0422 |
| TAATACAA | 0.0511 |
| CCGGGTCC | -0.107 |
| GATTATTA | 0.0295 |
| AATTTAGA | -0.0408 |
| TTCTACAA | -0.0278 |
| GTTGCAGA | -0.117 |
| TCCCTTAA | -0.122 |
| CATAGGCA | -0.258 |
| CGCCTAGA | 0.0521 |
| GGTCCTAA | 0.0335 |
| TCCCCGAA | -0.245 |
| GGGAAGTA | 0.0119 |
| CGCCCACG | -0.113 |
| CCGCTGTA | -0.191 |
| CAATCGCA | 0.0817 |
| ACGACTCA | 0.238 |
| TTAATTAA | -0.145 |
| ATGGGCCG | -0.096 |
| GTCACTTA | 0.0991 |
| GACGCATC | -0.00787 |

| Sequence | PBM E-score |
| --- | --- |
| ACCCTGAC | -0.255 |
| ATTCGTCA | -0.019 |
| GGATCTGA | -0.00688 |
| AGTGTGCG | 0.0413 |
| CCTTAGGC | -0.134 |
| AGTATCTA | -0.122 |
| ATGGTGTC | -0.129 |
| ACGATTCC | 0.289 |
| CAATGGGA | -0.161 |
| GTTATTGA | 0.0873 |
| ATGGTATC | 0.109 |
| GCTTAACA | -0.026 |
| ATCGAGCC | 0.0586 |
| CGGCCCCA | -0.173 |
| CTCACATA | -0.106 |
| TAGTGGAA | -0.189 |
| TCGGTGCA | 0.00724 |
| CATGCATA | -0.0391 |
| TGAAGGCA | 0.0109 |
| CCGGCAGA | -0.0993 |
| CGGCGATC | 0.114 |
